Measured values as given in ChEMBL document CHEMBL4888484, “Replenishing the malaria drug discovery pipeline: Screening and hit evaluation of the MMV Hit Generation Library 1 (HGL1) against asexual blood stage Plasmodium falciparum ,using a nano luciferase reporter read-out” (2022).
The whole screen tested about 150,000 compounds, of which about 540 (0.36%) showed an effect of 50% or more. The list shows a part of the results.

These compounds were tested on Plasmodium falciparum (assay: Primary screen in NF54 nanoGlo assay, in single point, at 2uM, 72h; a lower Z score goes with more inhibition). Details: timepoint 72 hour.
Type: functional, Erythrocyte

| SMILES | % Inhibition | Z score |
| --- | --- | --- |
| O=C(Cn1nc(-n2ccc3ccccc32)ccc1=O)Nc1c[nH]c(=O)[nH]c1=O | -7% | 1.31 |
| CCc1noc([C@H]2CC(=O)N(c3c(C)cc(C)cc3C)C2)n1 | -9% | 1.74 |
| CC(C)[C@H](NS(=O)(=O)CC1CCCC1)c1nccn1C | 3% | -0.44 |
| CCCc1occc1C(=O)N[C@@H](Cc1ccccc1)c1ncon1 | 0% | -0.01 |
| Cc1noc(C)c1[C@@H](C)CNC(=O)c1csc(C)c1C | -6% | 1.01 |
| COc1cccnc1NCc1cnc(-c2ccccn2)s1 | -4% | 0.42 |
| Cn1cnn(CC(=O)N2CCC[C@@H]3COC[C@@H]32)c1=O | -2% | 0.44 |
| Cc1cc(C(=O)N2CCCN(Cc3ccc(Cl)cc3)CC2)on1 | -1% | 0.15 |
| Cc1nc(O)nc(C)c1CCC(=O)N[C@H]1CC(=O)Nc2ccccc21 | 3% | -0.47 |
| COc1ccc(Cl)cc1[C@H](C)NCCS(N)(=O)=O | -9% | 1.99 |
| O=C(Cc1cccs1)NCCc1csc(-n2cccn2)n1 | -3% | 0.45 |
| COCc1nnc2n1CC1CCC(C2)N1C(=O)CCc1ccc(OC)cc1 (stereo not given) | 2% | -0.28 |
| Cc1cc(C(=O)N2CC[C@@]3(CCCN(Cc4cccc(F)c4F)C3=O)C2)n[nH]1 | -17% | 2.14 |
| COc1ccc(C(=O)Nc2cccc(C3OC(=O)N(Cc4ccc(C)cc4)C3C(=O)NCc3ccco3)c2)cc1 (stereo not given) | -19% | 1.87 |
| CCc1nccn1CCCNC(=O)[C@H](C)Nc1ncnc2ccc(C)cc12 | 0% | -0.04 |
| COc1cccc(CNCc2ccco2)c1OCc1ccccc1F | 3% | -0.56 |
| Cc1ccc(C)c(NC(=O)NC2CCOC3(CCOC3)C2)c1 (stereo not given) | 2% | -0.27 |
| CCN1CCC(N[C@@H](C)c2cnc(N3CCCCCCC3)nc2C)CC1 | -6% | 1.01 |
| Cc1cc(Cl)c(C(=O)NC[C@@H](C)CCO)cc1C | 8% | -1.05 |
| CC(=O)N1CCCN(C(=O)CCc2c(C)nn(C)c2C)CC1 | -14% | 1.22 |
| CC(=O)Nc1nn(CC(F)(F)F)cc1Cl | 30% | -3.35 |
| CCOC(C)(C)C(=O)NCC[C@H]1CCCOC1 | -15% | 1.41 |

| SMILES | % Inhibition | Z score |
| --- | --- | --- |
| Cc1cc(C(=O)Cn2cnc3c2c(=O)n(C)c(=O)n3C)c(C)[nH]1 | -9% | 1.68 |
| COc1ccccc1C(=O)Nc1ccc(N(C)C)c(CN(C(=O)C(C)(C)C)[C@@H](C)c2ccccc2)c1 | 18% | -2.54 |
| O=C(NCCOC1CCCCCC1)c1cn([C@H]2CC[C@@H]2O)nn1 | -14% | 1.93 |
| O=C(Nc1c2c(nn1-c1ccc(Cl)cc1)CCC2)C1=COCCO1 | -2% | 0.27 |
| COc1ccc(OC)c(-c2nc3cc4c(cc3cc2CN2CCCOCC2)OCO4)c1 | -6% | 1.13 |
| O=C(O)c1ccccc1C(=O)N1CC[C@H]2COC(=O)N2c2cc(F)ccc2C1 | -3% | 0.45 |
| CCCC(=O)Nc1nn(Cc2ccccc2)c2cccc(N3CCOCC3)c12 | -11% | 1.35 |
| O=C(c1cnn2c(C(F)(F)F)cc(-c3cccs3)nc12)N1CCC[C@H]1c1cccs1 | -16% | 3.1 |
| C[C@H](NS(=O)(=O)c1ccc2c(c1)OCCCO2)C(=O)Nc1ccc(C(C)(C)C)cc1 | 18% | -1.87 |
| Nc1ccnc(-c2cc(O)cc(CC[C@H]3CCCCN3)c2)n1 | -3% | 0.57 |
| CC[C@H](C)c1cc(C(=O)NCc2nc(CN3CCCCC3)no2)on1 | 2% | -0.28 |
| Cc1cc(C)c(S(=O)(=O)N2CCC[C@@H]2C(=O)NCCc2csc(C)n2)c(C)c1 | 0% | -0.07 |
| OCc1nc2cc(-n3ccnc3-c3ccc(-n4ccnc4)cc3)ccc2[nH]1 | -3% | 0.43 |
| COCc1cc(N[C@H]2CN(C(=O)C3CCCC3)C[C@@H]2C(C)C)ncn1 | -8% | 1.39 |
| CC(C)[C@H](O)C(=O)N1CCC2(CCC(=O)N(CCc3ccncc3)C2)CC1 | 5% | -0.66 |
| COc1cc(S(=O)(=O)N2CC3(CC3)c3ccccc32)ccc1C(=O)O | -6% | 1.18 |
| O=C(Nc1nncs1)N1CCC[C@@H]1Cc1c(F)cccc1Cl | -14% | 2.49 |
| Cc1cc(F)ccc1CN1CCn2nc(CNc3ncccn3)cc2C1 | 5% | -1.01 |
| COc1ccccc1C(=O)N1CCOc2ccc(CN3CCCC3)cc2C1 | -5% | 0.88 |
| Cc1nc(C)n(C2CN(c3ccc(C(F)(F)F)c(C#N)n3)C2)n1 | -20% | 3.84 |
| O=C(NCCc1ccccc1)C1Cc2cc(C(F)(F)F)ccc2N2CCN(CCOc3ccccc3)CC12 (stereo not given) | 4% | -0.54 |
| COc1ccc(CN(Cc2cc3n(n2)CCCC3)[C@H]2CCS(=O)(=O)C2)cc1 | -14% | 2.74 |

| SMILES | % Inhibition | Z score |
| --- | --- | --- |
| O=C1CCCC(=O)N1Cc1ccc(C(F)(F)F)c(F)c1 | -8% | 0.92 |
| OCC(CO)N1CCc2onc(-c3ccc4c(c3)OCO4)c2C1 | -16% | 2.97 |
| CCNc1n[nH]c(N)c1-c1nc(-c2ccc(Cl)cc2)no1 | -5% | 0.48 |
| N#Cc1ccc(OCCNC(=O)Nc2cccnc2)cc1 | -5% | 0.83 |
| O=C(Nc1ccnn1Cc1ccccc1Cl)c1cc(O)nc2ccccc12 | -3% | 0.52 |
| Cc1nn(Cc2cccc(C(=O)Nc3nc4ccccc4n3Cc3ccccc3)c2)c(C)c1Cl | 7% | -0.98 |
| CCn1cc([C@H]2OCC[C@@H]2CN2CCC3(CCc4ccccc4C3=O)CC2)cn1 | 1% | -0.08 |
| Cc1noc(C)c1C(=O)NC[C@H]1CCOC1 | -4% | 0.54 |
| Cc1cnc(N2CCC[C@H](O)CC2)nc1N(C)C | -3% | 0.63 |
| Cc1cccnc1CN(C)Cc1ncc(Cl)n1C | 23% | -2.35 |
| COc1ccc(C(=O)N2CCC[C@H]2C(=O)N[C@H]2CC[C@H](NC(=O)c3ccccc3)CC2)cc1 | -7% | 0.89 |
| Cc1cc(C)cc(N(CC(=O)Nc2ccc3c(c2)n(C)c(=O)n3C)S(C)(=O)=O)c1 | 28% | -3.18 |
| N#Cc1ccc(NCCCOc2ccc(F)cc2)cc1 | -10% | 1.27 |
| O=C(NCc1cccnc1)c1cn(Cc2cccc3ccccc23)nn1 | -8% | 1.05 |
| COCCNC(=O)CCc1c(-c2ccc(C)cc2)nc2ccc(-c3cccc(C)c3)cn12 | -8% | 1.24 |
| CN(C)C1(CNCc2cccc(O)c2Cl)CCCCC1 | -21% | 2.7 |
| COCCC[C@H]1CCCCN1Cc1cc(CC(C)C)[nH]n1 | -12% | 1.59 |
| Cn1cc(S(=O)(=O)NC[C@@H](c2ccco2)n2cccn2)cn1 | 0% | 0.03 |
| CN(CC1CCCC1)c1cncc(-n2cccn2)n1 | -4% | 0.52 |
| O=C(C1CCCCC1)N1CC(OCc2cccc(F)c2)C1 | -8% | 1.41 |
| Cc1n[nH]c(C)c1CNC(=O)c1ccc(-n2cnnc2)nc1 | -4% | 0.57 |
| C1C[C@H](Nc2nnc(C3CC3)s2)C2(C1)CCOCC2 | -2% | 0.24 |

| SMILES | % Inhibition | Z score |
| --- | --- | --- |
| C[C@@H](c1ncc(C(C)(C)C)o1)N1CCc2c(ncn(C)c2=O)C1 | 1% | -0.11 |
| CC1CN(Cc2nc(-c3ccco3)no2)C(C)CO1 (stereo not given) | -10% | 1.26 |
| CC[C@H](Nc1cc(OC)ncn1)c1cnn(C)c1 | -21% | 2.07 |
| CC[C@]1(CO)CCCN1C(=O)Nc1ccc(C(C)(C)C)nn1 | -10% | 1.02 |
| CCc1ncnc(N2CCN(c3ncnc4sccc34)CC2)c1F | -3% | 0.25 |
| Fc1cccc(Br)c1CN1CCc2[nH]ncc2C1 | -14% | 1.57 |
| Cc1nc(N)nn1C(=O)CCC(=O)c1ccc2c(c1)OCCO2 | 6% | -1.17 |
| Cc1ccc(S(=O)(=O)NCC2CCC(C(=O)O)CC2)cc1 (stereo not given) | -6% | 0.79 |
| Cc1cc(C)n(CC(=O)N2CCN3C(=O)OC[C@H]3C2)n1 | -4% | 0.74 |
| COc1cccnc1CC(=O)N1CCc2nc[nH]c2[C@H]1c1cccnc1 | -2% | 0.47 |
| Cn1c(-c2n[nH]c3c2CCCC3)nnc1N1CCNC(=O)CC1 | -12% | 1.64 |
| COCCN1C(=O)C[S@+]([O-])C12CCN(C(=O)NCCc1ccccc1)CC2 | -9% | 1.71 |
| CCc1nn(C)c(Cl)c1CN(CC)[C@H]1COC[C@@H]1O | 0% | -0.09 |
| CN(CCC1CCCC1)S(C)(=O)=O | -6% | 0.83 |
| O=C1NCCCC[C@@H]1Nc1ccc2c(c1)OCCO2 | 6% | -0.95 |
| O=C(CC1CCCC1)NC1CCN(C(=O)c2c[nH]c3cc(F)ccc23)CC1 | 3% | -0.48 |
| O=C(N[C@H]1CC[C@@H](C(=O)Nc2ccc3c(c2)CCC3)C1)c1cc(C2CC2)no1 | 1% | -0.17 |
| Cn1nccc1CCC(=O)N1CCOCC1C1CCCCC1=O (stereo not given) | 8% | -1.15 |
| Cc1n[nH]c([C@H]2CCCN(CCOCc3ccccc3)C2)n1 | -13% | 2.34 |
